According to the supplement of paper PMC10126150:
Sequences with one replicate were seen in a single cluster, so their values are uncertain.

System: ATP
Assay: switch fluorescence ratio, 500 uM ATP over buffer (Cy3 cluster intensity, sum of 5 cycles each) (fold (ratio)); higher = stronger signal-on switching upon ATP binding; sequences stand for … in TCGTCGGCAGCGTCAGATGTGTATAAGAGACAGTTTTTTTTTTTTTTTTTTTTTTTTT…TC
Details: aptamer strand: ATP DNA aptamer (quencher-CACCTGGGGGAGTATTGCGGAGGAAGG + anchor), 100 nM annealed; ATP concentration: 500 uM; one replicate
Procedure, shortened: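 Exposure to 500 uM ATP lasted 15 min at 22 °C before imaging, and a selection-buffer image was taken beforehand, for Cy3-labelled switching-strand clusters on a modified Illumina MiSeq flow-cell annealed to 100 nM quencher-labelled ATP aptamer. Five buffer/ATP cycles were run with NaOH stripping and re-annealing between them. The fluorescence ratio per cluster is summed target-cycle over summed buffer-cycle Cy3 intensity, averaged per switch-domain sequence. Clusters outside 100-1000 RFU were excluded.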

Row | Sequence | switch fluorescence ratio
1 | AATTGAGGTG | 1.03
2 | GGTAATTAGC | 0.992
3 | CGCATTAAGT | 1.11
4 | GTTGAGATTG | 0.958
5 | GCGTGCACCT | 1.01
6 | CTGACACTAT | 1.21
7 | ATCGCAACGT | 1.02
8 | TGTTCCTTAA | 1
9 | TCTGCGCATG | 1.02
10 | TAGAGTTTA | 0.981
11 | CGTGGCCACC | 1.02
12 | TTATCCTAAA | 1.01
13 | AACTGATTGA | 1
14 | TCCGCAATAA | 1.26
15 | TTCAAGACT | 1.05
16 | GTGTGTAATG | 0.964
17 | CATAGGCGGA | 1.19
18 | GAGCCCACC | 1.02
19 | TCAGGATCGT | 0.984
20 | TGTGTTACCG | 0.973
21 | ACCCCAGAT | 1.2
22 | CTGGTTCAGT | 1.01
23 | TTATGAGTAT | 1.01

Row | Sequence | switch fluorescence ratio
24 | GGAGTCGACT | 1.09
25 | TTCGCCGATA | 0.982
26 | ACTTTTCTCA | 1.01
27 | GTCCGGCTGC | 0.948
28 | GACGATAGCA | 1.37
29 | TTTAGCATTC | 1.46
30 | AACCACATGG | 1.08
31 | CGACTGCGGA | 1.22
32 | TCGCAGGGTC | 1.33
33 | TATGTCTTCC | 1.65
34 | TTCGGAGCAA | 1.61
35 | GGTAGTGATG | 0.979
36 | TCCGACATGC | 1.09
37 | CTCGGCCGCC | 1.02
38 | TTCCATCGAT | 0.998
39 | GTCAGGATGG | 1.01
40 | GGTCTACGCG | 1
41 | TAAAGGGCGC | 0.971
42 | ACTCAGTAAA | 1.08
43 | ATGTTTGCCC | 0.993
44 | TACGAGGTGA | 1.04
45 | TTTGACCGCT | 1.03
46 | CATTGACTCC | 1.18

Row | Sequence | switch fluorescence ratio
47 | ACGTTTGCAC | 1.05
48 | TGCTGGGTAC | 1.03
49 | GTTGACGGCC | 1.02
50 | GCCAGGAGGT | 1.07
51 | GCATTAGCT | 1.01
52 | TACTTTCAGG | 1.03
53 | GGGTTCGCGA | 1.03
54 | AAAGCATGTG | 1.01
55 | TCGTGTGGAT | 1.01
56 | AGACAGACCT | 1.51
57 | CACCGGCAG | 1.18
58 | TGAGATGGAG | 1.02
59 | TGTTTACCGT | 0.995
60 | TCGACCATTT | 1.01
61 | TATTCGAAT | 0.959
62 | AGGTGCAGGG | 0.956
63 | CAGCCGCAT | 2.57
64 | ATACGCAT | 1.23
65 | CTTAGGTAGG | 0.978
66 | CGCGGGGCGT | 1
67 | GATATCACGA | 1.02
68 | AATCGTTGTA | 0.999
69 | ACGCTTGGTG | 1.11

Row | Sequence | switch fluorescence ratio
70 | GAATCACCTT | 1.14
71 | CCGACTAGAT | 4.8
72 | CTCAGCGGTC | 1.25
73 | TTTGCACT | 1.02
74 | GGATAAGTAG | 1.02
75 | CGAAACTATA | 1.03
76 | CTGGTTGAGC | 0.994
77 | GCGGTCTCTC | 1.02
78 | AGCCAGTGTT | 0.968
79 | GCCATTTAG | 1.02
80 | AGACGAGTTG | 0.988
81 | GACGTAGTGC | 1.78
82 | TGCCGCAGGA | 1.12
83 | CCAGGGAAGT | 1.01
84 | GGACGCGTGC | 1.14
85 | ACCTTGAATC | 1.09
86 | TTCACCCTTG | 1.14
87 | TCCTGTTGTC | 0.982
88 | GAGGCCGGTG | 1
89 | GACTATCCC | 0.997
90 | AAGACTGTTG | 0.955
91 | TCAGTTTTTA | 0.981
92 | ATGCGTTAGG | 0.997

Row | Sequence | switch fluorescence ratio
93 | GGGGAAAGAT | 0.921
94 | ACGTACGGGC | 1.45
95 | ACGATTAACC | 1.16
96 | ACCGGTTCTT | 1.01
97 | TATCCGTGTC | 1.03
98 | ATCTCGAATC | 1.05
99 | AAATTTGTGA | 1
100 | TTCAGCGATT | 1.06
101 | CCCCGTTACT | 3.43
102 | ACATCAGTTA | 1.02
103 | TTGAAGTAA | 0.992
104 | GCACCCGAGC | 1.07
105 | TTACATCATA | 1.03
106 | CAGCGATGAC | 2.37
107 | AAGGCTTAGG | 0.943
108 | TTGAATCAGA | 1.07
109 | TAGGCGCCAA | 1.01
110 | AAGGACGAAA | 1.07
111 | GATAAAAAAC | 1.16
112 | CGTATGAG | 0.978
113 | TAGGTGCTC | 1.04
114 | CTATTTGATG | 0.998
115 | AGCTGAAAAT | 1.02

Row | Sequence | switch fluorescence ratio
116 | GCGCGACATC | 1.23
117 | GCTACCAAGT | 1.04
118 | GTAGGAGGTT | 0.954
119 | CTAGAAGGTG | 1.71
120 | TAGTCCATCT | 1.1
121 | TCTCGTGCCT | 0.967
122 | TGTTCGGAGG | 1.01
123 | GGTCCATAGC | 1.07
124 | TTGTTGAGCG | 0.986
125 | GCGACTGAGG | 0.948
126 | TGGCGGCTTG | 0.976
127 | TCCGTAGCTT | 5.23
128 | GAGGTCGTTG | 1.03
129 | TTTTAGCGAT | 1.05
130 | CTATGGGGTA | 0.987
131 | TACAGTACGA | 1.36
132 | TGTTGGGTCG | 0.942
133 | TGCCCGCTGA | 1.25
134 | ATCGCTTAGT | 1.01
135 | CGATCCGAGG | 0.983
136 | TATTGCGTTA | 1.04
137 | GATTTAGCCT | 1.06
138 | CGTAGCTACA | 1.2

Row | Sequence | switch fluorescence ratio
139 | TGTAGTGCAT | 1.01
140 | TGGATATACG | 0.984
141 | GGTTGTATCA | 0.978
142 | CGTCGTTTG | 1.01
143 | TTCCTTTCTG | 1.01
144 | ATTTAAGCGC | 1.03
145 | ACGAGCAGGT | 1.19
146 | ATTGTATATT | 1.01
147 | CATTACTAGA | 1.03
148 | CGGTAGGGTC | 1
149 | TAGACCGCTT | 1.06
150 | AATATTGTAA | 0.99
151 | AATGTTGTA | 1
152 | TTAGGAGG | 0.995
153 | GCTAATTGAG | 1.02
154 | ATACGTATCG | 1.07
155 | AAATTTCTAT | 1.04
156 | TGGTAGCCTG | 1
157 | GACGGCGATT | 1.05
158 | CAAGCCAGGT | 1.27
